Laboratory results reported in the supplement of paper PMC8728848.
The other results are listed elsewhere or left out.

Key:
Assay in all cases: glycan array binding signal (z-score within array); higher = stronger binding
Conditions in all cases: glycan notation: IUPAC condensed, linker removed
Gal3S(b1-4)Glc = biological target: Gal3S(b1-4)Glc
Procedure, shortened: (§1)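 Glycan array data were curated from 3228 arrays in the Consortium for Functional Glycomics database and kept only where the protein sequence was available. Glycan names were converted to IUPAC-condensed notation, and columns mapping to the same glycan were averaged. The binding signal is a within-array Z-score, averaged across arrays of the same protein sequence at different concentrations or buffers and across linkers. Negative Z-scores can be read as non-binding.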

Gal3S(b1-4)Glc6S = biological target: Gal3S(b1-4)Glc6S
Procedure, shortened: as §1

Gal3S(b1-4)GlcNAc = biological target: Gal3S(b1-4)GlcNAc
Procedure, shortened: as §1

[1] = biological target: Gal3S(b1-4)[Fuc(a1-3)]Glc6S
Procedure, shortened: as §1

[2] = biological target: Gal3S(b1-4)[Fuc(a1-3)]GlcNAc
Procedure, shortened: as §1

[3] = biological target: Gal3S(b1-4)[Fuc(a1-3)]GlcNAc6S
Procedure, shortened: as §1

Gal3S4S(b1-4)GlcNAc = biological target: Gal3S4S(b1-4)GlcNAc
Procedure, shortened: as §1

Gal3S6S(b1-4)GlcNAc = biological target: Gal3S6S(b1-4)GlcNAc
Procedure, shortened: as §1

Gal3S6S(b1-4)GlcNAc6S = biological target: Gal3S6S(b1-4)GlcNAc6S
Procedure, shortened: as §1

Gal4S(b1-4)GlcNAc = biological target: Gal4S(b1-4)GlcNAc
Procedure, shortened: as §1

Gal4S6S(b1-4)GlcNAc = biological target: Gal4S6S(b1-4)GlcNAc
Procedure, shortened: as §1

Gal6P(b1-4)GlcNAc = biological target: Gal6P(b1-4)GlcNAc
Procedure, shortened: as §1

Gal6S(b1-3)GlcNAc = biological target: Gal6S(b1-3)GlcNAc
Procedure, shortened: as §1

Gal6S(b1-3)GlcNAc6S = biological target: Gal6S(b1-3)GlcNAc6S
Procedure, shortened: as §1

Gal6S(b1-4)Glc = biological target: Gal6S(b1-4)Glc
Procedure, shortened: as §1

Gal6S(b1-4)Glc6S = biological target: Gal6S(b1-4)Glc6S
Procedure, shortened: as §1

Gal6S(b1-4)GlcNAc = biological target: Gal6S(b1-4)GlcNAc
Procedure, shortened: as §1

Gal6S(b1-4)GlcNAc6S = biological target: Gal6S(b1-4)GlcNAc6S
Procedure, shortened: as §1

GalNAc(a1-3)Gal = biological target: GalNAc(a1-3)Gal
Procedure, shortened: as §1

GalNAc(a1-3)GalNAc = biological target: GalNAc(a1-3)GalNAc
Procedure, shortened: as §1

[4] = biological target: GalNAc(a1-3)GalNAc(b1-3)Gal(a1-4)Gal(b1-4)Glc
Procedure, shortened: as §1

[5] = biological target: GalNAc(a1-3)GalNAc(b1-3)Gal(a1-4)Gal(b1-4)GlcNAc
Procedure, shortened: as §1

GalNAc(b1-3)Gal = biological target: GalNAc(b1-3)Gal
Procedure, shortened: as §1

[6] = biological target: GalNAc(b1-3)Gal(a1-4)Gal(b1-4)GlcNAc
Procedure, shortened: as §1

[7] = biological target: GalNAc(b1-3)Gal(a1-4)Gal(b1-4)GlcNAc(b1-3)Gal(b1-4)Glc
Procedure, shortened: as §1

[8] = biological target: GalNAc(b1-3)Gal(a1-6)Gal(b1-4)Glc
Procedure, shortened: as §1

GalNAc(b1-3)GalNAc = biological target: GalNAc(b1-3)GalNAc
Procedure, shortened: as §1

GalNAc(b1-3)GlcNAc = biological target: GalNAc(b1-3)GlcNAc
Procedure, shortened: as §1

GalNAc(b1-4)Gal(b1-4)Glc = biological target: GalNAc(b1-4)Gal(b1-4)Glc
Procedure, shortened: as §1

GalNAc(b1-4)GlcNAc = biological target: GalNAc(b1-4)GlcNAc
Procedure, shortened: as §1

B1: PX9896A-bth-573-26-573 (Bacteroides thetaiotaomicron) (protein)
chain: ETNNLKTKEDMYKYFGTSKSMLTHVYSYMPQGYQLFATSGGIFTEDRYSMRDCASDDGEFGAYADNIQNTNNGNWSPIKTYDDSWTLYRGIRAANSFIAEIAQVDFTRYEHDGQYTNWMKQLKYFPYEARVLRAHYFFELARRYGDIAMPLEVLTEEEANTIGKTPFSEVISFIVSECDDAANNLPDSYVNEPGAEIGRVTKGFAMAVKSKALLYAASKLHNPSMDTELWKKSAKAAIDIINTGLYSLDPQESANNLDSKEVVLMRINGDDSDFEMFNLPLRMTAGTRTSSLIPYSNYPSQNLVDAFETVNGYKVTLENTGWVCEDPAFDPQSPYENRDKRFYRAILANGMSFKDYTIETFKGGADDGIVSQGGSPTGYFLRKYIQEATSFEPGKEAVSKHHWVIYRYAETLLTYAESMVNAFNDVNYTDETYKYSALWAINEVRKNADMPLIPSMGKDEFMERLYNEWRVEFAFEDHRFWDVRRWKIADTTQRELYGVKIEKQADGTFNFYKNLYETRNWRDCMYLYPIPQSELYKNTNLNPQNTGW
glycan array binding signal (z-score) (Gal3S(b1-4)Glc): -0.136
glycan array binding signal (z-score) (Gal3S(b1-4)Glc6S): -0.084
glycan array binding signal (z-score) (Gal3S(b1-4)GlcNAc): -0.003
glycan array binding signal (z-score) [1]: -0.105
glycan array binding signal (z-score) [2]: -0.42
glycan array binding signal (z-score) [3]: 0.407
glycan array binding signal (z-score) (Gal3S4S(b1-4)GlcNAc): 0.471
glycan array binding signal (z-score) (Gal3S6S(b1-4)GlcNAc): -0.014
glycan array binding signal (z-score) (Gal3S6S(b1-4)GlcNAc6S): -0.205
glycan array binding signal (z-score) (Gal4S(b1-4)GlcNAc): 0.269
glycan array binding signal (z-score) (Gal4S6S(b1-4)GlcNAc): -0.373
glycan array binding signal (z-score) (Gal6P(b1-4)GlcNAc): -0.2
glycan array binding signal (z-score) (Gal6S(b1-3)GlcNAc): 0.519
glycan array binding signal (z-score) (Gal6S(b1-3)GlcNAc6S): 3.99
glycan array binding signal (z-score) (Gal6S(b1-4)Glc): 0.264
glycan array binding signal (z-score) (Gal6S(b1-4)Glc6S): 1.28
glycan array binding signal (z-score) (Gal6S(b1-4)GlcNAc): 0.263
glycan array binding signal (z-score) (Gal6S(b1-4)GlcNAc6S): 0.104
glycan array binding signal (z-score) (GalNAc(a1-3)Gal): 0.8
glycan array binding signal (z-score) (GalNAc(a1-3)GalNAc): -0.575
glycan array binding signal (z-score) [4]: -0.609
glycan array binding signal (z-score) [5]: -0.359
glycan array binding signal (z-score) (GalNAc(b1-3)Gal): -0.52
glycan array binding signal (z-score) [6]: 2.03
glycan array binding signal (z-score) [7]: -0.112
glycan array binding signal (z-score) [8]: -0.503
glycan array binding signal (z-score) (GalNAc(b1-3)GalNAc): 0.355
glycan array binding signal (z-score) (GalNAc(b1-3)GlcNAc): -0.426
glycan array binding signal (z-score) (GalNAc(b1-4)Gal(b1-4)Glc): -0.435
glycan array binding signal (z-score) (GalNAc(b1-4)GlcNAc): 0.356
